Data published in PubChem BioAssay AID504333 (National Center for Advancing Translational Sciences (NCATS), 2011).
In all, about 360,000 compounds went through this assay and about 16,000 (4.4%) were called active. The inconclusive results got no clear call from the source; some entries with a clear call stand among them for comparison. The call rests on the fitted dose curve; in most records, active means well fitted inhibition curve with a large enough effect; inconclusive means small, poorly fitted or top-dose-only effect; inactive means no such curve, though single readings can be large or run the other way. Potencies of inconclusive entries are doubtful fits and often do not repeat.

Each compound was assayed against Bromodomain adjacent to zinc finger domain protein 2B (Homo sapiens) (UniProt Q9UIF8) (assay: qHTS Assay for Inhibitors of BAZ2B). Conditions: AlphaScreen BAZ2B-H3K14Ac peptide displacement; activity change, negative = inhibition: at 114 µM (top of the series).
Method in brief: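 AlphaScreen displacement: compounds (up to 110uM) incubated 30 min at room temperature with a preformed 50 nM BAZ2B/50 nM biotinylated H3K14Ac peptide complex in PBS pH 7.4 with Tween-20. Donor and acceptor beads at 10 ug/mL final added, 20 min light-protected before reading.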
Further: nearly all actives have a fitted effect of over 60% in size.
On the % scale 0 is the no-effect control and ±100 the full control effect; potency means the concentration at half of the fitted maximal effect; tags describe the fitted curve by direction and shape.

UniProt Q9UIF8, sequence (Q9UIF8 whole entry, looked up, the tested form may be a part): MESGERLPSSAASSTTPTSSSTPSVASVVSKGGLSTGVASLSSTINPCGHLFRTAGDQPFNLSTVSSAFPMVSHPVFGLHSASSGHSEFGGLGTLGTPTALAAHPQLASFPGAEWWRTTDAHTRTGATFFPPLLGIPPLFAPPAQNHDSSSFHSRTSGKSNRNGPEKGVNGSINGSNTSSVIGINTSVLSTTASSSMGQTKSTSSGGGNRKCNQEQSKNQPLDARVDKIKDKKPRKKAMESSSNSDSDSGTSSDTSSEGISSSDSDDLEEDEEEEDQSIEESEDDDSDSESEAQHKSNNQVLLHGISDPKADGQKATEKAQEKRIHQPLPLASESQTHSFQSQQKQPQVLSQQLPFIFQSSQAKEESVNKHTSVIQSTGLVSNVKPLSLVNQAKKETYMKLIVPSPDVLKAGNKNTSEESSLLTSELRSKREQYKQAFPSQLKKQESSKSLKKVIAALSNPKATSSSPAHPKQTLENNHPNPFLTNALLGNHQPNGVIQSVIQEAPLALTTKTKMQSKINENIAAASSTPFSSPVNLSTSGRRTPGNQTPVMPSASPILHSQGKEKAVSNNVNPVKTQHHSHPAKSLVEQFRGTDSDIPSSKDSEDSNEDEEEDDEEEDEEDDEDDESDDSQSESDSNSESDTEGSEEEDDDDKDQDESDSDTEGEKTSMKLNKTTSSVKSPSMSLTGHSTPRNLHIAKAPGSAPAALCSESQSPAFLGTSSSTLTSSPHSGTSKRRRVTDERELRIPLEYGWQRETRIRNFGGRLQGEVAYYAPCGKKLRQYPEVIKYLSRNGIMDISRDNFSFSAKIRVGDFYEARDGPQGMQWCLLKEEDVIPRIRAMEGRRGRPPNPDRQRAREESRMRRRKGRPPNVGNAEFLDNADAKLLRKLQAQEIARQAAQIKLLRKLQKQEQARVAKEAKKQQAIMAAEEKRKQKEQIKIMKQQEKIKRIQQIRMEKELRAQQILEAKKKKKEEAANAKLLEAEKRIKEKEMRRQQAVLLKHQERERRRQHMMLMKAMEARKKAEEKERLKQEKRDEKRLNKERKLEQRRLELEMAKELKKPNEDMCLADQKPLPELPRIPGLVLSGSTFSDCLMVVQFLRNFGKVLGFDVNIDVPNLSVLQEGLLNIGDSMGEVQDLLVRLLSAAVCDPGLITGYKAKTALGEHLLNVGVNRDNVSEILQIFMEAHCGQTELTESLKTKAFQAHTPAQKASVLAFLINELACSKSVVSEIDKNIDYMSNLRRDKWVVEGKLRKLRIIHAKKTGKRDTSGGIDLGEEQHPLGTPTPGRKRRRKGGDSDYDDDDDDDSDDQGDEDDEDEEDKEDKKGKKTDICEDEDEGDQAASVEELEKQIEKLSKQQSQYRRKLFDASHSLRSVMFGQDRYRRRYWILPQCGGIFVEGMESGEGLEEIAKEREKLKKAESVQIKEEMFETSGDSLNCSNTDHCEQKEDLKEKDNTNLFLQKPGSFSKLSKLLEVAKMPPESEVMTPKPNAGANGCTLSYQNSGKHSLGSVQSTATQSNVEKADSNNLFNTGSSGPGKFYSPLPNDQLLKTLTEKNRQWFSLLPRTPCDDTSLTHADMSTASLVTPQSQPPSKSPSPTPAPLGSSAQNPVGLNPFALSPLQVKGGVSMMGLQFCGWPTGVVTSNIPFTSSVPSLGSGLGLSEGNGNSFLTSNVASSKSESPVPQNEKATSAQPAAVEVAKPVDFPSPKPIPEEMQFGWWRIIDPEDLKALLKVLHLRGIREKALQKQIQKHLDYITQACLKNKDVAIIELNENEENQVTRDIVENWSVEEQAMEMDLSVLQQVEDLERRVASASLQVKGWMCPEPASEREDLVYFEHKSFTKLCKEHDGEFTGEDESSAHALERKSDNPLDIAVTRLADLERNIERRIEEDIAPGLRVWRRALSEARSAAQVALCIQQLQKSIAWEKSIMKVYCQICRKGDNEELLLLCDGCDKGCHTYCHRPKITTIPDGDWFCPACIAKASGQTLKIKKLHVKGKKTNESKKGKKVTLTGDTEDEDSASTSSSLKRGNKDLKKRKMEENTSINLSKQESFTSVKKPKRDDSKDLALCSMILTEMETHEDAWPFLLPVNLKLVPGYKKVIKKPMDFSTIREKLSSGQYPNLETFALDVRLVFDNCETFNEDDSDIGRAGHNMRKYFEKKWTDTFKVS

Structure (SMILES)	Potency	activity change, negative = inhibition
Cc1cc(-c2n[nH]c(=S)n2/N=C/c2ccccc2[N+](=O)[O-])n[nH]1	inconclusive: 89.1 µM [inhibitor, single point]	–
Nc1ccnc(=O)[nH]1	–	inactive: -2.04%
CC(=O)C1=C(C)NC(SCC(=O)c2ccc(Cl)cc2)=C(C#N)C1CC(C)C (stereo unspecified)	inconclusive: 89.1 µM [inhibitor, single point]	–
Cc1ccc(-n2ncc3c(NCCC4=CCCCC4)ncnc32)cc1C	–	inactive: 3.23%
COc1cccc(/C(C#N)=C/c2c(-c3ccc(Cl)cc3)nc3c(C)cccn23)c1	inconclusive: 7.94 µM [inhibitor, full curve]	–
CC(C)(C)NC(=O)COc1ccc(CNCc2ccccn2)cc1	active: 50.1 µM	–
O=[N+]([O-])c1ccc(-c2cnc(SC(c3ccccc3)c3ccccc3)[nH]2)cc1	active: 39.8 µM	–
COc1ccc(N=C2C(=Nc3ccc(OC)cc3)N(c3ccc(OC)cc3)C(=S)N2C(=O)c2ccc(OC)cc2)cc1	inconclusive: 39.8 µM [inhibitor, partial curve]	–
O=C(O)c1cc2c(cc1Cl)N1CCCCCC1=NS2(=O)=O	–	inactive: -14.2%
COc1cccc(/C=N/NC(=S)NCCc2ccccc2)c1OC	inconclusive: 79.4 µM [inhibitor, single point]	–
COc1ccccc1N(C(=O)c1ccncc1)c1nc(-c2ccc([N+](=O)[O-])cc2)cs1	inconclusive: 10 µM [inhibitor, full curve]	–
O=C1CSC(c2cn(-c3ccccc3)nc2-c2cc3ccccc3o2)N1Cc1ccccc1 (stereo unspecified)	inconclusive: 89.1 µM [inhibitor, single point]	–
Nc1[nH]n(-c2ccccc2)c(=O)c1N=Nc1ccc2ncsc2c1	inconclusive: 8.91 µM [inhibitor, full curve]	–
COc1ccc(Nc2c([N+](=O)[O-])ccc3c2=NC2(CCCCC2)N=3)cc1	active: 7.08 µM	–
Cc1ccc(C(=O)OCC(=O)NCc2cccc(Cl)c2)cc1S(=O)(=O)N1CCCCC1	–	inactive: 10.2%
CCN(CC)CCCNC(=O)Cn1c(-c2cccs2)cc2cc(Cl)ccc21	–	inactive: -2.87%
COC(=O)c1ccc(Sc2nnnn2-c2ccccc2)c([N+](=O)[O-])c1	inconclusive: 39.8 µM [inhibitor, partial curve]	–
CCn1c(-c2ccc3[nH]c(C)c(C)c3c2)n[nH]c1=S	inconclusive: 50.1 µM [inhibitor, partial curve]	–
CCCCN(CCCC)S(=O)(=O)c1ccc2oc(C(=O)NCc3ccccc3)c(C)c2c1	–	inactive: 8.31%
Cn1nc(C(F)(F)F)c(-c2ccccc2)c1NC(=O)c1nccnc1C(=O)O	active: 79.4 µM	–
CC(=O)c1cccc(Nc2nc(-c3sc(N)nc3C)cs2)c1	active: 35.5 µM	–
COC(=O)Oc1cncc(C(=O)O)c1	inconclusive: 89.1 µM [inhibitor, single point]	–
CCOC(=O)Cc1ccc(NCc2ccc(Cl)cc2)cc1	inconclusive: 89.1 µM [inhibitor, single point]	–

Structure (SMILES)	Potency	activity change, negative = inhibition
NS(=O)(=O)c1ccc(CCNc2nc3c(-c4cccc(F)c4)nnn3c3ccc(Cl)cc23)cc1	inconclusive: 89.1 µM [inhibitor, single point]	–
COCCCNC(=O)/C(C#N)=C/c1c(N2CCN(c3ccc(OC)cc3)CC2)nc2c(C)cccn2c1=O	inconclusive: 35.5 µM [inhibitor, partial curve, poor fit]	–
O=C(c1cc(-c2ccc(O)cc2)on1)N1CCN(c2ccc(F)cc2)CC1	inconclusive: 70.8 µM [inhibitor, single point]	–
CCN1CCN(C(=O)c2ccc3c(c2)N(Cc2cc(C)ccc2C)C(=O)c2ccccc2S3=O)CC1 (stereo unspecified)	inconclusive: 79.4 µM [inhibitor, single point]	–
Cc1cc(C)c2nc(NNC(=O)c3cc(-c4cccs4)nc4ccccc34)sc2c1	inconclusive: 1.41 µM [inhibitor, full curve, poor fit]	–
Cc1ccc(NC(=O)Cn2nnc(C(=O)NCc3ccco3)c2N)c(C)c1	inconclusive: 79.4 µM [inhibitor, partial curve]	–
COc1ccc(C2c3c(ncn(CCCO)c3=N)Oc3ccc4ccccc4c32)cc1OC (stereo unspecified)	inconclusive: 79.4 µM [inhibitor, single point]	–
COC(=O)C(CC(=O)c1ccc(C)cc1)n1cccn1 (stereo unspecified)	–	inactive: 9.39%
COc1ccc2cc(CNc3ccc(OC)c(OC)c3)c(=O)n(CC(=O)Nc3ccc(C)cc3)c2c1	–	inactive: -12.7%
S=C(Nc1ccc(Cl)cc1)N1CCN(C2CCCCC2)CC1	–	inactive: 3.1%
Cn1cccc1-c1cc(C(=O)N/N=C/c2cccc(O)c2)[nH]n1	active: 44.7 µM	–
CCCOc1cccc(C(=O)Nc2ccc(-c3nc4ccccc4o3)cc2)c1	–	inactive: 3.21%
Cc1ccc(NC(=O)c2ccc3nc[nH]c3c2)nc1	–	inactive: -37.2%
Cn1c(=O)n(C)c2cc(S(=O)(=O)N3CCCc4ccccc43)ccc21	inconclusive: 89.1 µM [inhibitor, single point]	–
CCOc1ccc(NC(=O)CN(C)C(=O)C2CCN(c3ncnc4sc(C)c(C)c34)CC2)cc1OCC	inconclusive: 31.6 µM [inhibitor, full curve]	–
O=C(NNS(=O)(=O)c1ccc(F)cc1)c1ccccc1O	inconclusive: 79.4 µM [inhibitor, single point]	–
O=C(Cn1cc(S(=O)(=O)Cc2ccc(F)cc2)c2ccccc21)NCc1ccccc1	–	inactive: -1.06%
CC(=O)N(C)C1=C(N2CCOCC2)C(=O)c2ccccc2C1=O	–	inactive: -37.9%
CS(=O)(=O)N(CC(=O)Nc1ccccc1-c1ccccc1)c1ccccc1	inconclusive: 31.6 µM [inhibitor, single point]	–
Cc1ccc(NC(=O)CNCc2ccccn2)cc1S(=O)(=O)N(C)C	active: 25.1 µM	–
S=C1NC2(CCCCC2)Nc2ccccc21	inconclusive: 79.4 µM [inhibitor, single point]	–
Cc1csc2c(=O)sc(NC(=O)c3cccs3)nc12	active: 50.1 µM	–
CSc1ccccc1NC(=O)CN(C)Cc1c(O)ccc2ccccc12	inconclusive: 89.1 µM [inhibitor, single point]	–
